# Source: the supplement of paper PMC11741623
# The other results are listed elsewhere or left out. Interaction screen of human proteins with wild-type SARS-CoV-2 proteins by split-DHFR complementation in yeast, 1 µg/mL methotrexate. Value = fitness of the pair (three or more lineages) minus that of the viral protein without a human partner, on a scale set by negative (0) and fused positive (1) controls, mean of up to three cultures; higher = more likely to interact. Active = false discovery rate below 0.05 (one-sided t-test) in at least one culture. Nearly all pairs are not hits, and differences among them are mostly noise (correlation between cultures about 0.3); most hits were seen in one culture only. Human sequences are the Swiss-Prot entries looked up by gene name; the clone may be another isoform. NSP2 values were corrected by the authors for a growth advantage. Listed are human proteins with a hit and a random twelfth of the others.
# B1: C1QTNF9B, B2RNN3 (protein)
# chain: MRIWWLLLAIEICTGNINSQDTCRQGHPGIPGNPGHNGLPGRDGRDGAKGDKGDAGEPGCPGSPGKDGTSGEKGERGADGKVEAKGIKGDQGSRGSPGKHGPKGLAGPMGEKGLRGETGPQGQKGNKGDVGPTGPEGPRGNIGPLGPTGLPGPMGPIGKPGPKGEAGPTGPQGEPGVRGIRGWKGDRGEKGKIGETLVLPKSAFTVGLTVLSKFPSSDVPIKFDKILYNEFNHYDTAVGKFTCHIAGVYYFTYHITVFSRNVQVSLVKNGVKILHTRDAYVSSEDQASGSIVLQLKLGDEMWLQVTGGERFNGLFADEDDDTTFTGFLLFSSQ
# B2: JOSD2, Q8TAC2 (protein)
# chain: MSQAPGAQPSPPTVYHERQRLELCAVHALNNVLQQQLFSQEAADEICKRLAPDSRLNPHRSLLGTGNYDVNVIMAALQGLGLAAVWWDRRRPLSQLALPQVLGLILNLPSPVSLGLLSLPLRRRHWVALRQVDGVYYNLDSKLRAPEALGDEDGVRAFLAAALAQGLCEVLLVVTKEVEEKGSWLRTD
# B3: RPH3AL, Q9UNE2 (protein)
# chain: MADTIFGSGNDQWVCPNDRQLALRAKLQTGWSVHTYQTEKQRRKQHLSPAEVEAILQVIQRAERLDVLEQQRIGRLVERLETMRRNVMGNGLSQCLLCGEVLGFLGSSSVFCKDCRKKVCTKCGIEASPGQKRPLWLCKICSEQREVWKRSGAWFYKGLPKYILPLKTPGRADDPHFRPLPTEPAEREPRSSETSRIYTWARGRVVSSDSDSDSDLSSSSLEDRLPSTGVRDRKGDKPWKESGGSVEAPRMGFTHPPGHLSGCQSSLASGETGTGSADPPGGPRPGLTRRAPVKDTPGRAPAADAAPAGPSSCLG
# B4: POM121C, A8CG34 (protein)
# chain: MSPAAAAAGAGERRRPIASVRDGRGRGCGGPAGAALLGLSLVGLLLYLVPAAAALAWLAVGTTAAWWGLSREPRGSRPLSSFVQKARHRRTLFASPPAKSTANGNLLEPRTLLEGPDPAELLLMGSYLGKPGPPQPAPAPEGQDLRNRPGRRPPARPAPRSTPPSQPTHRVHHFYPSLPTPLLRPSGRPSPRDRGTLPDRFVITPRRRYPIHQTQYSCPGVLPTVCWNGYHKKAVLSPRNSRMVCSPVTVRIAPPDRRFSRSAIPEQIISSTLSSPSSNAPDPCAKETVLSALKEKKKKRTVEEEDQIFLDGQENKRRRHDSSGSGHSAFEPLVASGVPASFVPKPGSLKRGLNSQSSDDHLNKRSRSSSMSSLTGAYTSGIPSSSRNAITSSYSSTRGISQLWKRNGPSSSPFSSPASSRSQTPERPAKKIREEELCHHSSSSTPLAADKESQGEKAADTTPRKKQNSNSQSTPGSSGQRKRKVQLLPSRRGEQLTLPPPPQLGYSITAEDLDLEKKASLQWFNQALEDKSDAASNSVTETPPTTQPSFTFTLPAAATASPPTSLLAPSTNPLLESLKKMQTPPSLPPCPESAGAATTEALSPPKTPSLLPPLGLSQSGPPGLLPSPSFDSKPPTTLLGLIPAPSMVPATDTKAPPTLQAETATKPQATSAPSPAPKQSFLFGTQNTSPSSPAAPAASSASPMFKPIFTAPPKSEKEGLTPPGPSVSATAPSSSSLPTTTSTTAPTFQPVFSSMGPPASVPLPAPFFKQTTTPATAPTTTAPLFTGLASATSAVAPITSASPSTDSASKPAFGFGINSVSSSSVSTTTSTATAASQPFLFGAPQASAASFTPAMGSIFQFGKPPALPTTTTVTTFSQSLPTAVPTATSSSAADFSGFGSTLATSAPATSSQPTLTFSNTSTPTFNIPFGSSAKSPLPSYPGANPQPAFGAAEGQPPGAAKPALTPSFGSSFTFGNSAAPAPATAPTPAPASTIKIVPAHVPTPIQPTFGGATHSAFGLKATASAFGAPASSQPAFGGSTAVFSFGAATSSGFGATTQTASSGSSSSVFGSTTPSPFTFGGSAAPAGSGSFGINVATPGSSATTGAFSFGAGQSGSTATSTPFTGGLGQNALGTTGQSTPFAFNVGSTTESKPVFGGTATPTFGQNTPAPGVGTSGSSLSFGASSAPAQGFVGVGPFGSAAPSFSIGAGSKTPGARQRLQARRQHTRKK
# Molecular target: SARS-CoV-2 NSP10
# Test: yeast fitness gain over the viral ORF with no human partner (scaled fitness); higher = more likely to interact
# Protocol: (§1)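 Split mouse DHFR complementation in pooled diploid yeast: human ORFeome clones carry one fragment and viral ORFs the other; barcoded lineages compete in 1 µg/mL methotrexate and fitness is read by barcode sequencing in up to three cultures.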
row,Binder,yeast fitness gain
1,B1,inactive: -0.0636
2,B2,inactive: 0.042
3,B3,inactive: 0.0138
4,B4,inactive: -0.0516

# Molecular target: SARS-CoV-2 NSP12
# Test: as above
# Protocol: as §1
row,Binder,yeast fitness gain
1,B1,inactive: -0.0612
2,B2,inactive: 0.025
3,B3,inactive: 0.0562
4,B4,inactive: -0.303

# Molecular target: SARS-CoV-2 NSP2
# Test: as above
# Protocol: as §1
row,Binder,yeast fitness gain
1,B1,inactive: -0.198
2,B2,inactive: -0.266
3,B4,inactive: -0.364

# Molecular target: SARS-CoV-2 ORF9B
# Test: as above
# Protocol: as §1
row,Binder,yeast fitness gain
1,B1,inactive: -0.0454
2,B2,inactive: 0.0411
3,B3,inactive: 0.0044
4,B4,inactive: 0.0457

# Molecular target: SARS-CoV-2 NSP13
# Test: as above
# Protocol: as §1
row,Binder,yeast fitness gain
1,B2,inactive: -0.0543
2,B3,inactive: -0.0503
3,B4,inactive: -0.123

# Molecular target: SARS-CoV-2 NSP5
# Test: as above
# Protocol: as §1
row,Binder,yeast fitness gain
1,B2,inactive: 0.0558
2,B3,inactive: -0.129
3,B4,inactive: -0.0143

# Molecular target: SARS-CoV-2 ORF10
# Test: as above
# Protocol: as §1
row,Binder,yeast fitness gain
1,B2,inactive: -0.0826
2,B4,inactive: -0.159

# Molecular target: SARS-CoV-2 ORF3B
# Test: as above
# Protocol: as §1
row,Binder,yeast fitness gain
1,B2,inactive: 0.0271
2,B3,inactive: -0.0397
3,B4,inactive: -0.132

# Molecular target: SARS-CoV-2 ORF8
# Test: as above
# Protocol: as §1
row,Binder,yeast fitness gain
1,B2,inactive: -0.0251
2,B3,inactive: -0.167
3,B4,inactive: -0.124

# Molecular target: SARS-CoV-2 ORF9Bwu (the 73-codon ORF)
# Test: as above
# Protocol: as §1
row,Binder,yeast fitness gain
1,B2,inactive: -0.259

# Molecular target: SARS-CoV-2 S
# Test: as above
# Protocol: as §1
row,Binder,yeast fitness gain
1,B2,inactive: -0.00568
2,B4,inactive: -0.0521

# Molecular target: SARS-CoV-2 NSP6
# Test: as above
# Protocol: as §1
row,Binder,yeast fitness gain
1,B3,inactive: 0.178

# Molecular target: SARS-CoV-2 NSP8
# Test: as above
# Protocol: as §1
row,Binder,yeast fitness gain
1,B3,inactive: -0.0775
2,B4,inactive: -0.0395

# Molecular target: SARS-CoV-2 ORF6
# Test: as above
# Protocol: as §1
row,Binder,yeast fitness gain
1,B3,inactive: 0.0506
2,B4,inactive: 0.0806

# Molecular target: SARS-CoV-2 ORF7B
# Test: as above
# Protocol: as §1
row,Binder,yeast fitness gain
1,B3,inactive: -0.0179
